Experimental data: the antibiotic and cytotoxicity screens of Wong et al. (2023)
This is one part of the list.

What was measured:
[1] = system: HSkMC (human skeletal muscle cells); assay: cytotoxicity call (relative viability < 0.9); details: 10 µM
[2] = system: HepG2; assay: cytotoxicity call (relative viability < 0.9); details: 10 µM
[3] = system: S. aureus RN4220; assay: growth inhibition call (relative growth <= 0.2); details: 50 µM

| Structure (SMILES) | cytotoxicity call [1] | cytotoxicity call [2] | growth inhibition call [3] |
| --- | --- | --- | --- |
| C[C@H](CO)N1C[C@H](C)[C@H](CN(C)S(=O)(=O)c2cccs2)Oc2ccc(NS(=O)(=O)c3ccc(F)cc3)cc2CC1=O | inactive | inactive | inactive |
| CNC(=O)C(=O)Nc1cc(Cl)ccc1C#N | inactive | inactive | inactive |
| C[C@H](CO)N1C[C@H](C)[C@H](CN(C)Cc2ccc(Oc3ccccc3)cc2)Oc2ccc(NC(=O)Nc3ccc(F)cc3)cc2C1=O | active | active | inactive |
| C[C@@H]1CN([C@H](C)CO)C(=O)c2cc(NC(=O)Nc3ccccc3)ccc2O[C@H]1CN(C)S(=O)(=O)c1cn(C)cn1 | inactive | active | inactive |
| CC(C)(C)OC(=O)C[C@H]1CC=CC[C@@H](CC(=O)N[C@H](CO)Cc2ccccc2)C(=O)N[C@@H](C(C)(C)C)COC1=O | inactive | inactive | inactive |
| C[C@@H]1CN([C@H](C)CO)C(=O)Cc2cc(NC(=O)c3ccncc3)ccc2O[C@H]1CN(C)S(=O)(=O)c1ccc(F)cc1 | inactive | inactive | inactive |
| C[C@@H]1CCCCO[C@H](CN(C)Cc2ccc(C(=O)O)cc2)[C@H](C)CN([C@@H](C)CO)C(=O)c2cc(NC(=O)NC3CCCCC3)ccc2O1 | inactive | inactive | inactive |
| Cc1nc(Cn2cnc3c2c(=O)n(C)c(=O)n3C)no1 | inactive | inactive | inactive |
| C[C@@H]1CN([C@@H](C)CO)C(=O)Cc2cc(NC(=O)C3CC3)ccc2O[C@H]1CN(C)S(=O)(=O)c1cn(C)cn1 | inactive | inactive | inactive |
| COc1ccc(S(=O)(=O)N[C@H]2CC[C@H](CC(=O)N3CCN(c4ccccc4)CC3)O[C@@H]2CO)cc1 | inactive | inactive | inactive |
| COc1ccc(CN(C)C[C@H]2OCCCC[C@H](C)Oc3ccc(NC(=O)CCC(F)(F)F)cc3C(=O)N([C@H](C)CO)C[C@H]2C)cc1 | inactive | active | inactive |
| C[C@H](CO)N1C[C@H](C)[C@H](CN(C)CC2CC2)OCCCC[C@H](C)Oc2ccc(NC(=O)c3ccccc3)cc2C1=O | inactive | inactive | inactive |
| C[C@H](CO)N1C[C@H](C)[C@H](CN(C)Cc2ccccc2)Oc2ccc(NC(=O)Nc3cccc4ccccc34)cc2C1=O | inactive | inactive | inactive |
| Cc1noc(C)c1NC(=O)Nc1ccc2c(c1)C(=O)N([C@H](C)CO)C[C@@H](C)[C@@H](CN(C)S(=O)(=O)c1ccc(Cl)cc1)OCCCC[C@H](C)O2 | inactive | inactive | inactive |
